Reference: PMC4336329 (PLoS ONE, 2015)
In all, about 310,000 compounds went through this assay and about 2,200 (0.71%) showed an effect of 50% or more. Effects have a minus sign here. This is one part of the list.

What follows are compounds tested against human ether-à-go-go-related gene (hERG) potassium channel (human, UniProt Q12809) (assay: primary screen, population patch clamp on CHO cells stably expressing hERG).
Chain of human ether-à-go-go-related gene (hERG) potassium channel (Q12809 whole entry, looked up): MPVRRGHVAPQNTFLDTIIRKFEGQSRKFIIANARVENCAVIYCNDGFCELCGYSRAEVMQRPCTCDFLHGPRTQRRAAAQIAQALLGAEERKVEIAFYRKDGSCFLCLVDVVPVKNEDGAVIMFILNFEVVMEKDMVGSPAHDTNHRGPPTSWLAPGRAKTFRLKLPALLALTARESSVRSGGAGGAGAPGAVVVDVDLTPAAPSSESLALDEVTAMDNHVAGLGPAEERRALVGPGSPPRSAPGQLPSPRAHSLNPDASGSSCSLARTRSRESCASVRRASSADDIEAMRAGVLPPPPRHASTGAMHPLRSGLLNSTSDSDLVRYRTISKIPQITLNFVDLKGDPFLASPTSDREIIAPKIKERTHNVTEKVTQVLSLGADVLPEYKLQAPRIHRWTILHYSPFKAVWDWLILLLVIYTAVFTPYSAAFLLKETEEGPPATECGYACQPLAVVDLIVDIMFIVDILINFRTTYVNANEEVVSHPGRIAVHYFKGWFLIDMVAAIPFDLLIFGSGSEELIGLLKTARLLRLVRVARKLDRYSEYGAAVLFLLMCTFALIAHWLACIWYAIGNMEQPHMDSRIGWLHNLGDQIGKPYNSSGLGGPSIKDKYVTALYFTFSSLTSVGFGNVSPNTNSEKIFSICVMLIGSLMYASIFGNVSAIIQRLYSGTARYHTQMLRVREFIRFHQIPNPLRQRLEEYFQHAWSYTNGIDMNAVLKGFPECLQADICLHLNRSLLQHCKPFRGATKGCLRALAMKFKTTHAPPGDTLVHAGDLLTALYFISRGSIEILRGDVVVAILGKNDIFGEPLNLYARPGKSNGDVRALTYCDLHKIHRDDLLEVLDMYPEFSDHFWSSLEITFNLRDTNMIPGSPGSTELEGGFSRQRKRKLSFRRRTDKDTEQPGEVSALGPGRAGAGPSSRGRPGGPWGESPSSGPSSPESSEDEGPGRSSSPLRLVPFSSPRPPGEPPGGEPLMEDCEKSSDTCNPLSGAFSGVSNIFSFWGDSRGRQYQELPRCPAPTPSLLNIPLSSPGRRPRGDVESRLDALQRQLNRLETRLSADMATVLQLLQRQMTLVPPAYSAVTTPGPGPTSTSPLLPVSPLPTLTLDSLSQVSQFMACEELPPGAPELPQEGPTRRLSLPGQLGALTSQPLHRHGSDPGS

Structure (SMILES)	hERG current change (%, negative = inhibition) at 1uM [%]
Nc1nc(CSCCO)nc(Nc2ccccc2)n1	8.26
COc1ccc(F)cc1S(=O)(=O)N1CCCN(S(=O)(=O)c2cc(F)ccc2OC)CC1	7.98
Cc1cc(Cl)c(S(=O)(=O)N(C)C)cc1OCC(N)=O	11.8
O=C(Nc1ccc(C(=O)O)cc1)/C(=C\c1ccco1)NC(=O)c1ccc(Br)o1	4.99
O=C(N=C1SC2CS(=O)(=O)CC2N1c1ccccc1F)C1CCCCC1 (stereo not drawn)	16.6
Cc1oc(S(=O)(=O)N(C)C)cc1C(=O)Nc1ccc(Cl)cc1	16.7
O=c1[nH]c(=O)n(Cc2ccc(F)cc2)c(O)c1C=Nc1ccc(Cl)cc1	10.5
CC(c1ccccc1)N1CC(C(=O)Nc2ccc(F)cc2)CC1=O (stereo not drawn)	8.67
CCOc1cc(C(=O)Nc2c3c(nn2C(C)(C)C)CS(=O)C3)cc(OCC)c1OCC (stereo not drawn)	4.2
CCN1C(=O)/C(=C2/C=Cc3ccccc3N2CC)SC1=S	5.2
COC(=O)CCS(=O)(=O)c1ccc(Cl)cc1	11.9
CC(C)CC(c1nnnn1C1CCCCC1)N1CCN(C(=O)c2ccco2)CC1.Cl (stereo not drawn)	-11.3
Cc1nonc1NC(=O)CSc1nnc(N)s1	2.97
CCOC(=O)C1CCN(C(=O)COc2ccc(S(=O)(=O)NC(C)(C)C)cc2)CC1	7.89
CCc1ccc(/C=N/NC(=S)NCCc2ccccc2)cc1	6.19
COc1cccc(CNC(=O)CCS(=O)(=O)c2ccc3c(c2)NC(=O)CO3)c1	6.65
CSc1nc(-c2ccccc2)[nH]c(=S)c1C(C)=O	8.7
COc1ccc(/C(C)=N\NC(=O)CNC(=O)C(c2ccccc2)c2ccccc2)cc1OC	18.8
CC(C)Nc1nnc(SCC(=O)Nc2ccc3c(c2)C(=O)c2ccccc2C3=O)s1	4.05
CC(C)CNC(=S)NNC(=O)CC(C)O (stereo not drawn)	-3.23
Cc1nn(-c2nc3ccccc3s2)c(N)c1-c1ccccc1	9.3
Cn1c(=O)c2c(n(Cc3ccccc3)c1=O)NC(=O)C2CC(=O)O (stereo not drawn)	11.2
CCc1nnc(NC(=O)c2ccc(S(=O)(=O)N3CCCc4ccccc43)cc2)o1	27.1

Structure (SMILES)	hERG current change (%, negative = inhibition) at 1uM [%]
CCCCSc1nnc(-c2ccccc2NC(C)=O)c(=O)[nH]1	11.3
CCc1ccc(-c2cc(C(=O)Nc3c(C)n(C)n(-c4ccccc4)c3=O)c3ccccc3n2)s1	4.82
COc1ccc(Br)cc1S(=O)(=O)NCCCN1CCOCC1	9.27
Cc1cc(C)nc(NC(=O)c2ccc(C)c(C)c2)n1	15.8
COc1ccc(-n2cc(-c3ccccc3)c3c(NCCOCCO)ncnc32)cc1	11.1
N#Cc1c(-c2cccc(Br)c2)cc(-c2cccnc2)nc1N	8.03
O=C(CNC(=O)N1CC(=O)Nc2ccccc21)NCc1ccccc1Cl	14.1
COc1ccccc1NC(=S)N/N=C1\CC(C)(C)Oc2ccc(O)cc21	4.73
Cc1cc(C)cc(N(C(=O)c2sc(C)nc2C)C(C(=O)NC(C)(C)C)c2ccncc2)c1 (stereo not drawn)	32.7
COc1ccccc1Oc1c(C)oc2cc(OC(=O)N(C)C)ccc2c1=O	9.22
Cc1nn(-c2cccc(C(F)(F)F)c2)c(=O)c2ccccc12	14.4
Cl.O=C(CN1CCCC1)N1c2ccccc2Sc2ccc(Cl)cc21	8.51
Cc1ccc(CNC(=O)/C=C/c2c(Cl)cccc2Cl)cc1	9.88
Cc1cccc(C2=NCC(=O)N(CC(=O)NCc3ccco3)c3sc4c(c32)CCCC4)c1	9.72
CC(C)N1C(=O)CCC1C(=O)NCc1cccs1 (stereo not drawn)	14.2
COc1cc(C2C(C#N)=C(N)N(c3ccc(F)cc3)C3=C2S(=O)(=O)CC3)ccc1O (stereo not drawn)	13
O=c1[nH]c(SCc2cccc([N+](=O)[O-])c2)nc2[nH]ncc12	-1.4
O=C(NCc1cccc(F)c1)C1CCC(=O)N(C2CCCC2)C1 (stereo not drawn)	3.7
O=Cc1cc([N+](=O)[O-])ccc1N1CCN(Cc2ccc3c(c2)OCO3)CC1	-66.7
Nc1ccc2nc(-c3ccc(Cl)cc3)[nH]c2c1	8.65
COC(=O)c1ccc(N2CCN(C)CC2)c(NC(=O)COc2ccccc2)c1	-7.22
COc1ccc(N2C(=NC(C)=O)SC3CS(=O)(=O)CC32)cc1OC (stereo not drawn)	1.39
O=C(CSc1n[nH]c(=O)n1C1CC1)Nc1ccc(Cl)c(Cl)c1	-9.47

Structure (SMILES)	hERG current change (%, negative = inhibition) at 1uM [%]
Cc1cccc(-n2c(CCn3nc(C)c([N+](=O)[O-])c3C)n[nH]c2=S)c1	1.58
COC(=O)c1ccccc1NC(=O)NCCc1ccc(OC)c(OC)c1.Cl	18.5
Cc1cc(N2C(=O)CC(N3CCN(c4ccc(C(=O)c5cccs5)cc4)CC3)C2=O)no1 (stereo not drawn)	6.53
CCOC(=O)c1[nH]cnc1C(=O)Nc1ccncc1	9.31
COc1ccc(C(=O)Nc2ccccc2NC(=O)c2ccco2)cc1OC	-9.39
CCCn1nnnc1NC(=O)c1ccc2ccccc2c1	11.2
C=C1C(=O)O[C@@H]2C[C@@H](C)[C@@H]3C=CC(=O)[C@@]3(C)[C@@H](OC(=O)CC(=O)O[C@H]3[C@@H]4C(=C)C(=O)O[C@@H]4C[C@@H](C)[C@@H]4C=CC(=O)[C@]43C)[C@H]12	-2.24
CCCc1cc(C(=O)Cc2ccc(C(=O)OCC)o2)c(O)cc1O	10.7
COc1ccc(-n2c(Cc3cccn3C)nnc2SCC(=O)Nc2ccc(F)cc2F)cc1	-7.38
CSc1nc(NC(C)=O)nc(C)c1Br	4.71
O=C(Nc1cc(C(F)(F)F)ccc1Cl)c1cccc(N2C(=O)CCC2=O)c1	16.8
COc1ccc(NC(=O)CC(CC(=O)O)c2cc(OC)c(OC)c(OC)c2)cc1 (stereo not drawn)	6.21
CC(C)Sc1ncnc2c1oc1ccccc12	7.79
O=C(CSc1ccc(Cl)cc1)NCC1CCCO1 (stereo not drawn)	5.01
CSCC[C@@H](CO)NC(=O)c1ccc2nc(C3CCCCC3)oc2c1	9.24
COc1cccc(CN2CCN(C(=O)c3oc4c(F)cccc4c3C)CC2=O)c1	10.7
Cc1ccc(CNC(=O)C2=CCN(S(=O)(=O)c3ccc(C)cc3)CC2)cc1	-0.106
COc1ccccc1C(=O)NCCC(=O)N(C)Cc1cccs1	5.95
O=[N+]([O-])c1cccc(CN2CCCCCC2)c1	11.4
N#C/C(=C/c1ccc(-c2ccccc2)o1)c1nc(-c2cccs2)cs1	12.2
O=C(Nc1ccccc1)Nc1ccccc1Br	5.45
NC(=O)CC(NC(=O)Cc1ccc(Br)cc1)c1ccc(NCCOc2ccccc2)c([N+](=O)[O-])c1 (stereo not drawn)	3.53
COC(=O)C1=C(C)N(Cc2cccnc2)C(=O)C1	-1.21

Structure (SMILES)	hERG current change (%, negative = inhibition) at 1uM [%]
COc1cccc2sc(NN)nc12	0.731
Nc1c(S(=O)(=O)c2cccs2)c2nc3ccccc3nc2n1CC1CCCO1 (stereo not drawn)	-1.64
O=C(Cc1ccccc1)Nc1nnc(-c2cccs2)s1	2.47
Clc1ccccc1Cc1noc(CN2CCSCC2)n1	10.7
COCCCNC(=S)N1CCN(Cc2ccc3c(c2)OCO3)CC1	7.53
COc1ccc(N2CCN(C(=O)COc3ccc(S(=O)(=O)N4CCOCC4)cc3C)CC2)cc1	7.16
c1ccc(Nc2nnc(-c3cccnc3)s2)cc1	12.7
Cc1ccc(CSC2=NCCN2S(=O)(=O)c2ccccc2)cc1	11.3
O=C(Cn1cnc2c(cnn2-c2ccccc2)c1=O)N1CCN(c2ccc(F)cc2)CC1	-11
Cc1ccc(CCNC(=O)CCCn2nc(C)c3c(C)n(-c4ccc(C)cc4)nc3c2=O)cc1	2.7
Cc1ccc(C(=O)Cn2c(C)cc(C)c(C#N)c2=O)cc1	12.1
Cc1cc(=O)oc(C)c1C(=O)NCCC(C)C	-4.19
O=C(Nc1nc(=O)[nH]s1)c1ccccc1	10.6
NNc1nc2ccc(F)cc2s1	-5.57
CN(C)c1nc(N)c2ncc(=S)[nH]c2n1	6.98
CC(=O)c1ccc(NC(=O)C(C)Sc2nnc3ccccn23)cc1 (stereo not drawn)	-1.85
Cn1c(CSc2nc3ccccc3s2)nnc1SCC(=O)NCCN1CCOCC1	9.96
O=C(COC(=O)C1CCN(S(=O)(=O)c2cccc3cccnc23)CC1)c1ccccc1	9.49
Cc1ccccc1C(OCC(O)CN1CCCCC1CCO)c1ccccc1 (stereo not drawn)	-25.3
Brc1cccc(CNn2cnnc2)c1	18.6
CCCn1nc(C(=O)NC2CC2)c2ccccc2c1=O	1.3
